Assay results published in PubChem BioAssay AID624296 (National Center for Advancing Translational Sciences (NCATS), 2012).
About 9,900 (2.8%) of roughly 350,000 compounds were called active. The inconclusive results got no clear call from the source; some entries with a clear call stand among them for comparison. Calls come from the whole dose curve; as a rule, active = well fitted activation curve with a large enough effect; inconclusive = small, poorly fitted or top-dose-only effect; inactive = no such curve, though single readings can be large or run the other way. Potencies of inconclusive entries are left out as doubtful fits.
Potency is the fitted concentration of half-maximal effect; tags give direction and shape of the fitted curve.

Assay: A quantitative high throughput screen for small molecules that induce DNA re-replication in MCF 10a normal breast cells. For activity, positive = re-replication: % of control where 0% means no effect. Note: nearly all actives have a fitted effect of over 50% in size.
Details: MCF 10A DNA re-replication, Hoechst nuclear intensity, 48 h; activity, positive = re-replication: at 46.1 µM (top of the series)
In the case of COC(=O)C1=C(c2ccc(F)cc2OCc2ccccc2)C[C@@H]2CC[C@H]1N2C(=O)NCc1ccc2c(c1)OCO2, the Potency is reported as inconclusive [activator, single point]. In the case of COc1cc(C(=O)Nc2ccc(Br)cc2C(=O)c2ccccc2Cl)cc(OC)c1OC, the “activity, positive = re-replication” value is reported as inactive: 10.2%. For O=S1(=O)N(CCN2CC=C(c3c[nH]c4cc(F)ccc34)CC2)c2cccc3c2N1CCC3, the Potency was inconclusive [activator, partial curve, poor fit]. With COc1ccc(C)cc1NC1=NCCCS1 the Potency was inconclusive [activator, single point]. For O=C(Nc1nnc(-c2ccco2)o1)c1cccc2ccccc12, the Potency was inconclusive [activator, single point]. In the case of O=C(CF)N(O)c1ccc(C=Cc2ccccc2)cc1, the Potency is reported as active: 6.51 µM. In the case of Cc1cc(-c2ccccc2)cc(-c2ccccc2)[n+]1CCc1ccccc1, the Potency is reported as inconclusive [activator, partial curve, poor fit]. For CCC(C)n1c(O)c(/C=N/Nc2ccccc2)c(=O)[nH]c1=S (stereo unspecified), the Potency was inconclusive [activator, single point]. For O=C1NC(=O)N(c2ccc(F)cc2)C(=O)/C1=C/c1ccc2c(c1)CCCN2Cc1ccccc1, the Potency was inconclusive [activator, single point]. For OCCNCCc1c[nH]c2ccc(OCc3ccccc3)cc12, the Potency was inconclusive [activator, single point]. In the case of COc1cc(C)c(C(=O)CC(=O)c2c(C)cc(OC)cc2C)c(C)c1, the Potency is reported as active: 16.4 µM. For Oc1ccc(Br)cc1CN1CCN(c2ccccc2)CC1, the “activity, positive = re-replication” value was inactive: 16.5%. For Cc1ccc(S(=O)(=O)NCC2CCC(C(=O)NCCCN3CCOCC3)CC2)cc1 (stereo unspecified), the Potency was inconclusive [activator, partial curve, poor fit]. For COC(=O)c1cn(S(=O)(=O)c2ccccc2)c2ccccc12, the Potency was active: 25.9 µM. With C=CCN1C(=O)c2ccccc2Sc2ccc(C(=O)N3CCC4(CC3)OCCO4)cc21 the “activity, positive = re-replication” value was inactive: 2.47%. With COC1=CC=C2[C@H]3Cc4ccc(OC)c5c4[C@@]2(CCN3C)C1O5 (stereo partly specified) the Potency was inconclusive [activator, single point]. For O=c1cccc2n1CC1CC2CN(Cc2cccc(Cl)c2Cl)C1 (stereo unspecified), the “activity, positive = re-replication” value was inactive: 25%. For O=Cc1cn(Cc2ccc(F)cc2)c2ccccc12, the Potency was inconclusive [activator, single point]. In the case of CCOC(=O)c1c(-n2c(C)cc(C=C3C(=O)NC(=O)NC3=O)c2C)sc2c1CCCC2, the Potency is reported as inconclusive [activator, single point]. In the case of COc1cccc(CNCCc2c[nH]c3ccccc23)c1OC, the “activity, positive = re-replication” value is reported as inactive: 6.17%. With Cc1cc(O)c(CN2CC=C(c3ccccc3)CC2)cc1C(C)C the Potency was inconclusive [activator, partial curve, poor fit]. For COc1ccccc1CN1CCCCC1c1cccnc1 (stereo unspecified), the “activity, positive = re-replication” value was inactive: 24.1%. For CC(C)(C)N1CC(C(=O)c2ccccc2)C1c1ccccc1 (stereo unspecified), the “activity, positive = re-replication” value was inactive: 28.6%. With Cc1cc(N(CCCl)CCCl)ccc1C=NNC(=O)c1cccnc1 the Potency was inconclusive [activator, single point]. With CNC(=S)N1CCN(CCN=Cc2c(O)n(-c3ccc(C)cc3)c(=S)[nH]c2=O)CC1 the Potency was inconclusive [activator, single point]. In the case of O=C(c1ccc(N2CCCCCC2)c([N+](=O)[O-])c1)N1CCC2(CC1)OCCO2, the Potency is reported as active: 23.1 µM. For COC(=O)CSC1=NP(=S)(SCC(=O)OC)N2CCCC2=C1C#N (stereo unspecified), the “activity, positive = re-replication” value was inactive: 0.791%. With COc1ccc(C(=O)C2CN(C)CC2c2ccc(Cl)cc2)cc1 (stereo unspecified) the Potency was inconclusive [activator, single point]. For CCN1CCN(CC(c2ccccc2)c2ccccc2)CC1, the Potency was inconclusive [activator, single point]. For COc1c(C=C2C(=O)NC(=O)NC2=O)c(CCN(C)C(=O)c2ccccc2)cc2c1OCO2, the Potency was inconclusive [activator, full curve, poor fit]. In the case of CN(Cc1ccccc1)C(=O)c1cccc(NC(=O)Cc2ccc([N+](=O)[O-])cc2)c1, the Potency is reported as inconclusive [activator, partial curve]. With CC1CN(c2ccccn2)C(C)CN1C(=O)C(O)(c1ccccc1)c1ccccc1 (stereo unspecified) the Potency was inconclusive [activator, partial curve, poor fit]. With CN1C(=O)C(=Cc2ccc(N3CCOCC3)o2)C(=O)N(C)C1=O the Potency was inconclusive [activator, partial curve]. In the case of Cc1ccc(NS(=O)(=O)c2ccc(Cl)c(N=Nc3c(O)[nH]c(=O)[nH]c3=O)c2)cc1Cl, the Potency is reported as inconclusive [activator, single point]. With CC12Cc3cn[nH]c3C=C1CCC1C2CCC2(C)C1CCC2(C)O (stereo unspecified) the “activity, positive = re-replication” value was inactive: 176%. In the case of C/C=C(\C)C(=O)N[C@@H](c1ccccc1)[C@@H](O)C(=O)O[C@H]1C[C@@]2(O)[C@@H](OC(=O)c3ccccc3)C3[C@](C)(C(=O)[C@H](O)C(=C1C)C2(C)C)[C@@H](O)C[C@H]1OC[C@@]31OC(C)=O (stereo partly specified), the Potency is reported as inconclusive [activator, partial curve, poor fit]. For C=CCN1CC[C@]23c4c5ccc(O)c4OC2[C@H](O)CC[C@@]3(O)[C@H]1C5 (stereo partly specified), the Potency was inconclusive [activator, full curve, poor fit]. With CCN1C[C@@]2(COC)C3[C@@H](OC)[C@H]4[C@@H]1[C@@]3(C1C[C@H]3[C@H](OC(=O)c5ccccc5)C1[C@]4(OC(C)=O)C[C@H]3OC)[C@@H](OC)C[C@H]2O (stereo partly specified) the “activity, positive = re-replication” value was inactive: 26.3%. With CCOC(=O)[C@@]1(C#N)C(c2ccc(Cl)c(Cl)c2)[C@H](C(N)=O)N2C=C(C(C)=O)C=C[C@H]21 (stereo partly specified) the Potency was inconclusive [activator, single point]. In the case of COc1ccc(OC)c(N2Cc3ccccc3C2=N)c1, the “activity, positive = re-replication” value is reported as inactive: 0.415%. In the case of COc1ccccc1Sc1ccccc1CC(C)N (stereo unspecified), the Potency is reported as inconclusive [activator, partial curve, poor fit]. In the case of C[Se]C[C@@H](N)C(=O)O, the Potency is reported as inconclusive [activator, single point]. In the case of Brc1nc(-c2ccccc2)nc(-c2ccccc2)c1Br, the Potency is reported as inconclusive [activator, single point]. For CC(NC(=O)Cc1cccc2ccccc12)C(=O)N1CCC(=O)CC1 (stereo unspecified), the Potency was inconclusive [activator, partial curve, poor fit]. In the case of COc1ccc(-c2nc3ccc(C(=O)N4CCC5(CC4)OCCO5)cc3nc2-c2ccc(OC)cc2)cc1, the Potency is reported as inconclusive [activator, partial curve, poor fit]. For O=c1cc(C(F)(F)F)c2cc3c4c(c2o1)CCCN4CCC3, the Potency was active: 10.3 µM. For CCOC(=O)[C@]12Cc3cc(OC)c(OC)cc3[C@H]1N(Cc1ccccc1)C(=O)c1ccccc12, the “activity, positive = re-replication” value was inactive: 10.7%. For O=c1oc2ccccc2c(O)c1C(c1ccc([N+](=O)[O-])cc1)c1c(O)c2ccccc2oc1=O, the Potency was inconclusive [activator, full curve]. In the case of CCCc1nc2ccccc2c(=O)n1-c1ccc(OC)cc1, the Potency is reported as inconclusive [activator, partial curve, poor fit]. For CC1C(=O)C(C)C(c2ccc(Cl)cc2)NC1c1ccc(Cl)cc1 (stereo unspecified), the Potency was inconclusive [activator, partial curve]. In the case of CC1CCCN(CC(=O)N2CCCc3ccccc32)C1 (stereo unspecified), the “activity, positive = re-replication” value is reported as inactive: 1.38%. With CCOc1ccc(C2CC(c3c(O)n(C)c(=O)n(C)c3=O)=NN2)cc1 (stereo unspecified) the “activity, positive = re-replication” value was inactive: -15.9%. For CCOc1ccc(N2C(=O)/C(=C\c3cccs3)C(=O)NC2=S)cc1, the Potency was inconclusive [activator, single point]. With CC1CCCC(C)N1/N=C/c1c[nH]c2ccc(Br)cc12 (stereo unspecified) the Potency was inconclusive [activator, single point]. For CCCCCn1c(=O)c(C(=O)Nc2nc3ccccc3[nH]2)c(O)c2ccccc21, the Potency was inconclusive [activator, full curve, poor fit]. For C#C[C@]1(O)CCC2C3CCC4=C/C(=N/OCC(=O)NC(C)C(=O)NC(CCSC)C(=O)O)CC[C@]4(C)C3CC[C@@]21C (stereo partly specified), the “activity, positive = re-replication” value was inactive: 1.03%. In the case of Fc1ccc(CCNCc2ccccc2Cl)cc1, the “activity, positive = re-replication” value is reported as inactive: 3.9%. In the case of COc1ccc(C(=O)C2CCCN(C3CSCCSC3)C2)c(C)c1 (stereo unspecified), the Potency is reported as inconclusive [activator, partial curve, poor fit]. In the case of CCN1CCOC(c2ccccc2)C1 (stereo unspecified), the Potency is reported as inconclusive [activator, partial curve]. In the case of O=c1[nH]c(=S)n(-c2ccc(Cl)cc2)c(O)c1C=Nc1ccc(N2CCOCC2)cc1, the “activity, positive = re-replication” value is reported as inactive: 19.4%. In the case of C=CCN1C(=O)/C(=C/c2cccs2)C(=O)NC1=S, the Potency is reported as inconclusive [activator, single point]. For CCc1ccc(N2NC(=O)/C(=C/C=C/c3ccco3)C2=O)cc1, the Potency was active: 20.6 µM. In the case of CN(C)CCOC(=O)c1cn(Cc2ccccc2)c2ccccc12, the Potency is reported as inconclusive [activator, single point]. In the case of CCC1C(c2ccccc2)NC(c2ccccc2)CC1(O)c1ccc(F)cc1 (stereo unspecified), the Potency is reported as inconclusive [activator, single point]. For CCCCCCCCCC[N+](C)(C)CCCCCCCCCC, the Potency was inconclusive [activator, full curve]. In the case of COC(=O)C1=C(c2cccc(OCc3ccccc3)c2)C[C@@H]2CC[C@H]1N2C(=O)NCc1ccc(OC)cc1, the Potency is reported as inconclusive [activator, partial curve, poor fit].
